Reference: the supplement of paper PMC11417369
± gives the standard deviation of the averaged measurements. The list shows a part of the results.

Test system: PfAP2-I AP2 domain 3 (GST-tagged)
Assay: gcPBM binding intensity (ln(normalized median fluorescence intensity)); higher = stronger DNA binding
How it was run: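 The binding buffer was 1× PBS containing 1% milk, 0.2 mg/ml BSA, 0.5% salmon testes DNA and 0.03% Triton X-100. In it, GST-tagged P. falciparum DNA-binding domains expressed in E. coli were applied for 1 h to an Agilent 4 × 180k array of primer-extended double-stranded 36-bp intergenic genomic probes plus negative controls. Binding intensity, read with Alexa488 anti-GST antibody and a 488 nm scan, is the highest Masliner-normalised natural-log median intensity across replicate spots of either probe orientation.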

Sequence	gcPBM binding intensity (ln)
ATTTCTCTATCGTAATGTACAAAAAAAAGGGAAAAG [XGTACX_site1335]	7.96 ± 0.52
CTAATCATAAAATATACACACACGGATACATTAAAT [CACACA_site2685]	7.89 ± 0.69
TTTATACTTTCAAAATGTACATATATATATATATAT [XGTACX_site6241]	9.47 ± 0.36
TAATATATAATTTTATGTACATAATTATAAACCCAT [XGTACX_site919]	8.09 ± 0.33
AAGGAATAAAATTTAGAAGACAATTTTATTTCAGTA [XGTACX_negctrl_site331]	7.3 ± 0.51
GGTATTTTCACATATAGTACACAAAAATAAAATAAA [XGTACX_site2139]	8.48 ± 0.099
TTTTTTTTTTTTTTTTTTTTTTTCTACCTATTTATT [CACACA_negctrl_site94]	8.2 ± 0.73
TTGTATAAAATATGTAGTACAATAATATAACATTTT [XGTACX_site8607]	7.99 ± 0.18
TATGTATATTGAGATTGTACTTGTAATATTAAACAT [XGTACX_site3878]	7.71 ± 0.61
AATAATAAAAATATTGTGCACTTGTATATTTATTAT [GTGCAC_site9963]	11 ± 0.11
AAGTTATACACATCAACACACACATACAACGTGGTG [CACACA_site8312]	7.8 ± 0.55
TAAACACATTATATATGTACATAATAAAAAAAAAAA [XGTACX_site7907]	8.04 ± 0.53
ATAAAATACAAAGGGACACACATATGAGTCTACAAA [CACACA_site3092]	7.54 ± 0.6
ATTTATTTATTTTCATGTACATATGTAAATCAATAA [XGTACX_site3886]	7.77 ± 0.44
TATATAATATAATGTAGTACATGTTTTATTTTTTAC [XGTACX_site7735]	7.76 ± 0.29
ATATTAACTTTTATTACACACTCTCAACTTTTATTT [CACACA_site6176]	8.19 ± 0.68
TCACAAATGTATTATACACACAAGTTTTCTTTAATA [CACACA_site4107]	7.83 ± 0.42
AATAAAAATAACCTAACATGCAAAAAAAAAAAAAAA [TGCATGCA_site718]	8.01 ± 0.69
TGAATGCTTTTATGCACACGTACAAAAATATTATAT [CACACA_site2668]	9.8 ± 0.42

Sequence	gcPBM binding intensity (ln)
GTCATTAAAAAAATATGTACTTAAATGTATGCATAT [XGTACX_site5951]	7.79 ± 0.44
TATATATTATATATATGTACTTATTTATTAATTTAT [XGTACX_site5253]	7.54 ± 0.24
TGTTGTTATAAAAAAAAAAAAAAAAAAAAAAAAAAA [GTGCAC_negctrl_site230]	8.16 ± 0.67
TGTGGTTTTTATAATTGTACATATATATAAATCTAT [XGTACX_site4766]	7.87 ± 0.21
ATATAAAATAAATAAGTGCAGATAAATTTATGTGAC [GTGCAC_site9504]	9.46 ± 0.13
GGAATATAAATACATACACACATATATATATATATA [CACACA_site4998]	9.24 ± 0.51
TATAATAAATCAAATGCACACACACTAATAAAAAAA [CACACA_site7937]	9.15 ± 0.11
ATGAATATTTACAATCTTATTATGTTCAAAATTAAT [CACACA_negctrl_site592]	7.48 ± 0.57
TACATGCTTATTTTAACACACAAATGGTAGTAATAA [CACACA_site766]	7.71 ± 0.64
TGACGACATTTCTTATGTACTAATTTTTCTTCCTTT [XGTACX_site4391]	7.63 ± 0.64
TAAAAAAAGAAAAAAAGTACATGCTACTTTTATGAT [XGTACX_site7818]	7.85 ± 0.48
CAAAATGATATGACAACACACAACCTATAGTAAGAC [CACACA_site1287]	8.07 ± 0.79
TAATATATAATAAAGTGTACATATGCTTTATTATTA [XGTACX_site1920]	7.75 ± 0.23
ATAATTATTAATATAGTGCATTGGCATAATAATATA [GTGCAC_site9810]	9.89 ± 0.2
TTATACAACAAGAAAATTATAAAATGTAACATATAT [GTGCAC_negctrl_site406]	7.53 ± 0.76
ATATTAATATAATGTGCATGTTCAATGATCTTTTTA [TGCATGCA_site22]	8.02 ± 0.93
TTAGATATAATATATACACACCAACGAACGAAGAAA [CACACA_site4763]	8.05 ± 0.55
TATTTTTTAACACAACGTACATATAAAAAATATTTA [XGTACX_site6025]	8.09 ± 0.31
TACAAATATATATGCACACACATATATGTATATGTG [CACACA_site3075]	9.44 ± 0.25

Sequence	gcPBM binding intensity (ln)
AGTAAATAACACAAATATGAATGAAAAAAAAAATAT [GTGCAC_negctrl_site235]	7.89 ± 0.79
ATATATATATAGTACGCACACATAGTTGTACATTAA [CACACA_site2787]	9.21 ± 0.13
CGTATGAGTAAATACACACCCACGTATATATATAAA [CACACA_site5728]	7.78 ± 0.44
CAACTTATTAAAAGTCGTACAAATGGGAAGAAGGAA [XGTACX_site6325]	8.18 ± 0.64
TGTGCGGAAATAAGTGCACACATAGATATCTGTATT [CACACA_site5935]	10.6 ± 0.57
GAGTAAAAATTAAAATGTACATATTATATATATTTA [XGTACX_site1319]	7.64 ± 0.3
AAATCCTTATTTTTTTGTACGTAATATTTTATATGG [XGTACX_site1530]	7.95 ± 0.38
ATGAATGTCCCAAGATGTACAATTATATATAACACA [XGTACX_site4702]	7.82 ± 0.4
TTTTAAGATATAAATTAATACTTATATATATAGATA [CACACA_negctrl_site22]	7.24 ± 0.42
TAATAAATAAGACACACACACATATATATATATTAT [CACACA_site1389]	7.92 ± 0.35
CCTTTCACATATAATACATGCATTATTATATATGAA [TGCATGCA_site287]	8.28 ± 0.57
AGAATAATATAATAAAGTACAAACCTATCTAACTAC [XGTACX_site5477]	7.87 ± 0.47
ATTATAAATAAATATTGTACTTATATGATCTATTTG [XGTACX_site3820]	7.42 ± 0.38
ATTGCATTTGTAGATAATACAATATGGATTGTTATA [CACACA_negctrl_site1749]	7.42 ± 0.64
GGATATATTATATGTACACACACATATAAGGGATTA [CACACA_site7884]	7.87 ± 0.3
AAAAATTTTATATTCACACACATATTTATATTTATA [CACACA_site6439]	7.71 ± 0.69
ATATATAAAAAAGCTAGTACACAAAAATATATAATG [XGTACX_site3001]	8.1 ± 0.75
AAAAAAATTTATTAAAGTACTAGATAATCATATAAA [XGTACX_site1455]	7.63 ± 0.61
